In paper PMC12136788 one finds binding signal data, which are given here for 22 molecules.

First the molecules themselves.
T1: UNK ZnF1-3 (human, UniProt Q9C0B0 31-174)
T1 sequence: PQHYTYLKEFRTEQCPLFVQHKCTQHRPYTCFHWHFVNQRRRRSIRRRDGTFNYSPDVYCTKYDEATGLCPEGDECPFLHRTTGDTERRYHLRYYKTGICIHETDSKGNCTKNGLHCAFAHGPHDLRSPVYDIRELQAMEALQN

B1: chr4:25749455:25749456:-_ENSG00000091490_ENST00000264868|hu_hu|hu_hu_hu_mus_False|8_88 (ssRNA)
RNA: GGGAGUUCUACAGUCCGACGAUCGCACUAUGACCUCUAGAAAAAUCAUUCAAGGAGAAAAAUGUAAACCAAUGUACAAUGUUAUCGCCUUCCCUGUGUGUGGAGUGUUUGUCUCAAGGCUCCUUCUUGCCUUAUAAUUUGGGACAACAGAGGAUUGAGCAUCA
B2: chr5:93602159:93602160:+_ENSMUSG00000058013_ENSMUST00000074733|mus_hu|FALSE|FALSE (ssRNA)
RNA: GGGAGUUCUACAGUCCGACGAUCUAUGCUCAUUUUAAAAAAAUUUUAGUGAUGCAAGAGACAAUUUAAAAGUGUACUUUCUGUACAAGCCACAAAAAUGCUCACACAAGCGGUGGUUGGAACAAGCAUACAACACAAAUAUUCCAACAGAGGAUUGAGCAUCA
B3: chr9:83676842:83676843:-_ENSMUSG00000032262_ENSMUST00000034796|mus_mus|FALSE|FALSE (ssRNA)
RNA: GGGAGUUCUACAGUCCGACGAUCGAUCCAGGGGCCGAACGCAGUCAGCCCAUAGUAGGAGUACAUGAUCACGUGGAUGAAAGAGUUCAUCUGGGCCCCGAAAAACGCUUGGCCUCCAGCCACCCACUUGAUUCCAAUCCACCACAACAGAGGAUUGAGCAUCA
B4: chr11:87793471:87793472:-_ENSMUSG00000020483_ENSMUST00000020775|mus_mus|mus_mus_mus_hu_False|8_8 (ssRNA)
RNA: GGGAGUUCUACAGUCCGACGAUCUGGACUUGAAAAUAAAAGAAUAAGCUGGAUCCCCCACCCCCCCACAUUGUCAACCCUACACGAGAGUUUUGAAGGCGACUCAUGAAAAUCAGCAGCUCAAACGAAUGACAACCCCCCACCCAACAGAGGAUUGAGCAUCA
B5: chr11:77336104:77336105:-_ENSG00000074201_ENST00000525064|hu_mus|hu_hu_hu_mus_False|1_88 (ssRNA)
RNA: GGGAGUUCUACAGUCCGACGAUCCUCACACAUUGCUGUGAACAUCGCCUCCAACGCUGACUUAUCACUGGGCACAAAUCGAAAUUCAGAAAUGGGUUCAACAUCAUCAUUGUCUUCCUCAUCUUCAUCAGAGAGAGCAGGUUCCAACAGAGGAUUGAGCAUCA
B6: chr14:89307221:89307222:+_ENSG00000165533_ENST00000346301|hu_mus|hu_hu_hu_mus_False|38_38 (ssRNA)
RNA: GGGAGUUCUACAGUCCGACGAUCUCCUGUUUGGUUAGUGCCAGGGAGCUUCAAAGAUGUGCCAGGGCGUGGGACCUGAGCAAUAGCAUUUUCAUCCAGCAUCAUUUCAGCAAUUCCUUCCUGGUCCACAUCAAUUUCAUCUAUCAACAGAGGAUUGAGCAUCA
B7: chr19:29217640:29217641:+_ENSMUSG00000024785_ENSMUST00000064393|mus_hu|motif|central (ssRNA)
RNA: GGGAGUUCUACAGUCCGACGAUCCUUGGUUUCAAUUUUAAACAUAAUCUGGAAAAAGCUCUUCAAAUGCCGCAAAAAUUCGGUCGUGUAGGGAGAGAGAGGGCCUAGCAGGACUUUGGAAACAUCCUGCUGUCCAAGGGUCAUCAACAGAGGAUUGAGCAUCA
B8: chr1:193054138:193054139:+_ENSG00000116747_ENST00000432079|hu_hu|motif|central (ssRNA)
RNA: GGGAGUUCUACAGUCCGACGAUCUUACACUUUUUGCUCUUACCUCUUUUAGGUACACACGUAUUAUUCAACAAAGCAAAACGGUUUUACAGUGUCUGUUAACAAAAAGUUCUCUAUUAGAUAGAGGAAACUACAGUAUCCUGACAACAGAGGAUUGAGCAUCA
B9: chr6:99998177:99998178:-_ENSG00000112237_ENST00000369220|hu_hu|motif|central (ssRNA)
RNA: GGGAGUUCUACAGUCCGACGAUCAAGGGGAAGCAACAUGUCUUCUUGGCCCAUGUCCUGCACAUACUGGAGCAAAGGUCGGUAAGGAUGAUACACUAUCAAGCAACAAUCCAUUAGUUCUAACAGAUAGAAUUCACAUUCUAACAACAGAGGAUUGAGCAUCA
B10: chr14:34206250:34206251:-_ENSMUSG00000021936_ENSMUST00000111945|mus_mus|FALSE|FALSE (ssRNA)
RNA: GGGAGUUCUACAGUCCGACGAUCUGCAGUCCUCGCCAGUCCAAAAUCAAGAAUCUUCAAAGUGCAGUCUGAUUUGACUACUAUAUUACUAGGCUUUAAGUCCCGAUGAAUAAUUCCAGCAGAGUGAAGGUGCUUGAUUCCACACAACAGAGGAUUGAGCAUCA
B11: chr5:37680062:37680063:+_ENSMUSG00000029121_ENSMUST00000031004|mus_hu|mus_mus_mus_hu_False|58_88 (ssRNA)
RNA: GGGAGUUCUACAGUCCGACGAUCUUUGGGUGUAGCUGGUACCUCGUACACAGGCCCGUCAUACAUGCCCCUGGAAACACUAUGCAAUCCAAAAACCUUAUUCCUGAUUUUGACGCGCUGGUACAGGUGCUCCGGGAACGCCUUCAACAGAGGAUUGAGCAUCA
B12: 66883379_66934788_389_5pUTR_ENSMUSG00000029207_ENSMUST00000159786|mouse|control|control (ssRNA)
RNA: GGGAGUUCUACAGUCCGACGAUCCCCAAGGACUCCAGAAACAGAGAGAGGGCUAGCUGGGCGCACUUAAGUCAGCAGGUGGGAAUCAGCUCUUCACAAGAGCUUUCUUUUAUGGAUUUUCCAUCCGGCAAAGGAUUCUAUUCCCAACAGAGGAUUGAGCAUCA
B13: chr6:24533737:24533738:+_ENSG00000112294_ENST00000357578|hu_hu|motif|central (ssRNA)
RNA: GGGAGUUCUACAGUCCGACGAUCCAGCUGCUCUGCCACUCUCCAGAUCUGGGCUGGGUCUUGAGAGUAAAAAUAACCUGCGGACCCAACAUCAGCUGCGUUAGCGAUUGCUAUAGCCUCCUCCUCUGUAUCGAACUUGAUAACCAACAGAGGAUUGAGCAUCA
B14: chr16:94651144:94651145:+_ENSMUSG00000040785_ENSMUST00000117648|mus_hu|mus_mus_mus_hu_True|18_68 (ssRNA)
RNA: GGGAGUUCUACAGUCCGACGAUCAUUUUCUUGAAUCAAGUGGCGAAUAACAUAGUCCACUGCUUCAUGGACAAAAUUUCUGCUAGAAAAACAGGUUGUAUAGUCUUCUGUGCUCAAAACCUUCCAAGAAAGCAAUUCUUUGAGCAACAGAGGAUUGAGCAUCA
B15: chr1:169100865:169100866:+_ENSG00000143153_ENST00000367816|hu_hu|motif|central (ssRNA)
RNA: GGGAGUUCUACAGUCCGACGAUCGUGUAAAGCAUAUAGAUUAAGUGUAGGUCCCAUACGUAUGACAGUUUGUUCAAGACGGGUAGGUUUUUGUUUUUGUAUCUUUUUUUAACUUAUUAAAUGGCUAGUGGGAAAGAUUUGUGCCAACAGAGGAUUGAGCAUCA
B16: chr19:30113593:30113594:+_ENSMUSG00000024817_ENSMUST00000025739|mus_hu|FALSE|FALSE (ssRNA)
RNA: GGGAGUUCUACAGUCCGACGAUCGGGUUUAGCCUCAAUCUGUGUAGAUGUGCCAGGAAGAUGAUCAGGGUCUGGGCGAACUAGCAGCUGAAUUAUAUCAUUCAGUCCAACAUCAUAAUCAAAUAAGGUAUAUCCAUUUUCCAACAACAGAGGAUUGAGCAUCA
B17: 171514793_171519311_636_CDS_ENSG00000117523_ENST00000495585|human|control|control (ssRNA)
RNA: GGGAGUUCUACAGUCCGACGAUCCCACUUCAGUAAAACCAUCAUCAUUCAAAUUUGACUGGGGAUCUUCAAUUACUGUUACUUCAGGAUGAUCAUCAAUUAUAACAACACUUGCAUAAUUGUUGAGAUCAAACUGUGAUAGAGCAACAGAGGAUUGAGCAUCA
B18: 96199972_96200459_2083_3pUTR_ENSMUSG00000033237_ENSMUST00000096250|mouse|control|control (ssRNA)
RNA: GGGAGUUCUACAGUCCGACGAUCAUGCCUUGUACCGGAAAAGACAUUUGUGUUGCAGUCAAAUUUGAAGAUUGAUUGGUGACAGGAGUCCUCUGAAAAUGAUUCCCUGCAGCCUGUGGUCCAUGAGGGAUUCCUGCAGGUGAACAACAGAGGAUUGAGCAUCA
B19: chr8:74858975:74858976:-_ENSG00000154582_ENST00000284811|hu_mus|FALSE|FALSE (ssRNA)
RNA: GGGAGUUCUACAGUCCGACGAUCGACCUUGUAGGUAAAAUACAUGCACACUUUUGAUAGCACAUGUGAGGGGAUCUCUCUAAAAUUGACCUCGUUGGUUUCAUUCUCAGCAAACUGACCUGGACCACUCAACAUAGCCUUUAUCAACAGAGGAUUGAGCAUCA
B20: chr12:39763582:39763583:-_ENSG00000139116_ENST00000544797|hu_mus|hu_hu_hu_mus_False|8_28 (ssRNA)
RNA: GGGAGUUCUACAGUCCGACGAUCCUCUAGGAACUGGGCAUUCACUUUGAAUUCAGGAGGGGGCAGCCCGUUUUUAAUCGCUGAGGUCUUUUUCUCAUCAAUACUCUUAAAAAGGUGUCUAACAGCACGAGAAAUAAUGCCCUGCAACAGAGGAUUGAGCAUCA
B21: chr1:66480114:66480115:+_ENSMUSG00000015222_ENSMUST00000024639|mus_hu|motif|central (ssRNA)
RNA: GGGAGUUCUACAGUCCGACGAUCUGGCCUGUGGCGGAUGUUCUUCAGAGAGCCACAUUUGGAUGUCACAUGGCUUAGGUCGGUUUUCUUGGUAACAAUUUGUACCUGCCCCCCUUUAGGCUGGUAUUUGAUGUUGUCUGUUGACAACAGAGGAUUGAGCAUCA
B22: chr2:198351390:198351391:-_ENSG00000144381_ENST00000345042|hu_hu|hu_hu_hu_mus_False|28_78 (ssRNA)
RNA: GGGAGUUCUACAGUCCGACGAUCUCAUUCCCACCCUCCACAGAAAGGCUGCUUCUGUUCUCAUCUGUGGUGACACAGCGCUACAGUCCUGAUGCUCACAGAACAGUAGUAAAAAUGCAGUGAUUUAAGUUGAAAGCAGGACACCAACAGAGGAUUGAGCAUCA

The list shows a part of the results.

The target in this test is T1, UNK ZnF1-3. Description: nsRBNS (natural sequence RNA bind-n-seq); RBNS binding buffer (assumed for nsRBNS): 25 mM Tris pH 7.5, 150 mM KCl, 3 mM MgCl2, 0.01% Triton X-100, 500 ug/ml BSA, 20 U/ml SUPERase-In, 4 C; UNK is unkempt and MSI1 is Musashi-1; names of the RNAs are library labels; protein concentration not given here; high values mean tight binding.
Turning to B1, the binding signal stood at 1.05 enrichment R.
B2 gave a binding signal of 0.806 enrichment R.
Then B3, with 0.679 enrichment R; and B4, with 2.51 enrichment R.
Then B5, with 1.18 enrichment R; and B6, with 1.07 enrichment R; and B7, with 1.39 enrichment R.
The molecule B8 gave a binding signal of 0.483 enrichment R.
The value for B9 was 0.878 enrichment R; that for B10 was 0.856 enrichment R; that for B11 was 0.632 enrichment R.
Then B12, with 0.981 enrichment R; and B13, with 1.01 enrichment R; and B14, with 0.627 enrichment R.
Then B15, with 1.88 enrichment R; and B16, with 1.17 enrichment R.
B17 had a binding signal of 1.09 enrichment R.
Then B18, with 1.19 enrichment R; and B19, with 0.787 enrichment R.
The value for B20 was 1.49 enrichment R; that for B21 was 0.496 enrichment R.
In the case of B22, the binding signal was determined as 1.34 enrichment R.
